Measured values published in PMC4336329 (PLoS ONE, 2015).
About 2,200 (0.71%) of roughly 310,000 compounds showed an effect of 50% or more. Effects have a minus sign here. The list shows a part of the results.

molecular target: human ether-à-go-go-related gene (hERG) potassium channel (human, UniProt Q12809); assay: primary screen, population patch clamp on CHO cells stably expressing hERG
Sequence (Q12809 whole entry, looked up): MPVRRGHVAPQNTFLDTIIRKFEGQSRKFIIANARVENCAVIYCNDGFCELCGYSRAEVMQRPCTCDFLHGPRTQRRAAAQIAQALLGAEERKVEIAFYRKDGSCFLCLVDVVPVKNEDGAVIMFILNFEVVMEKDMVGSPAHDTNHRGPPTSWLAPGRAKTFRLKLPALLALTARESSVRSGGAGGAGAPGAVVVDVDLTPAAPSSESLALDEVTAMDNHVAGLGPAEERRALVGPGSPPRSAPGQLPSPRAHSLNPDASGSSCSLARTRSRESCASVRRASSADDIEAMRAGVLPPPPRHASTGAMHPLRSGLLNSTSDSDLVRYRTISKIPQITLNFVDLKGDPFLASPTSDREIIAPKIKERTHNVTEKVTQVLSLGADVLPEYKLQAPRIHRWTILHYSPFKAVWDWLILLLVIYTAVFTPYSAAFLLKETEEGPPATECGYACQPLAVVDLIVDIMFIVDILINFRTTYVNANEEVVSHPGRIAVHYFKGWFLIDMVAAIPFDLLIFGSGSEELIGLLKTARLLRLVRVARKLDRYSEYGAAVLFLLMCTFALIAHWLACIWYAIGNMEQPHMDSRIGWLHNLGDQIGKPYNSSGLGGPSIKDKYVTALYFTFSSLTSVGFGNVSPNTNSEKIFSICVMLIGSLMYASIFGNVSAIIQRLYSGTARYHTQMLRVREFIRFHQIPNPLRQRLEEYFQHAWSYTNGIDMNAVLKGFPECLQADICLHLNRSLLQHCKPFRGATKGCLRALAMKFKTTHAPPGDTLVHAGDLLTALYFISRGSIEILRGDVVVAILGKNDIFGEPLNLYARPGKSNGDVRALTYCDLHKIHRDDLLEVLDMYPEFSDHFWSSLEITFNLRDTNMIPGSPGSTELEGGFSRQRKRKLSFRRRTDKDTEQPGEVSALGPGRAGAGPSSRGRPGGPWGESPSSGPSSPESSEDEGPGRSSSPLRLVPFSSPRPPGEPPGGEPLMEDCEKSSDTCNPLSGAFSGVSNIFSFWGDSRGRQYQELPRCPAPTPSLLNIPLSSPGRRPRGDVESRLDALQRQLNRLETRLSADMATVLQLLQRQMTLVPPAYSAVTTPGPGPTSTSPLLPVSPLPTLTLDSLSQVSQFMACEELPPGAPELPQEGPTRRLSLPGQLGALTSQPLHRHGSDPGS

| Compound | hERG current change (%, negative = inhibition) at 1uM |
| --- | --- |
| CCOC(=O)/C(N=Nc1ccc2c(c1)OCO2)=C(\C)O | 3.39% |
| COc1cccc(C(=O)Nc2nnc(S(=O)(=O)N(C)Cc3ccccc3)s2)c1 | 12.8% |
| CSc1ccccc1NC(=O)CN(C)CC(=O)Nc1c(F)cccc1F.O=C(O)C(=O)O | 12.1% |
| CC(=O)Nc1ccc(S(=O)(=O)N2CCN(Cc3cccc([N+](=O)[O-])c3)CC2)cc1.O=C(O)C(=O)O | 11.9% |
| CC(C)=CCC/C(C)=C/C(=O)O | 13.4% |
| COCn1c(=O)c2c(nc(SC3=NCCS3)n2Cc2ccccc2C)n(COC)c1=O | 12.6% |
| COc1ccc(CCC(C)NCc2ccccc2OC)cc1 (stereo not shown) | 1.77% |
| C[C@H](NC(=O)c1ccccc1Cl)C(=O)OCCOc1cccc(Cl)c1 | -0.0512% |
| CCN(CC)C(=O)Oc1ccc2c(=O)c(-c3ccc(OC)cc3)c(C)oc2c1 | 3.69% |
| COc1ccc(/C=C2/C(=N)N3C(=NC2=O)Sc2cc(S(C)(=O)=O)ccc23)cc1OC | 7.17% |
| Cc1cc(N2C(=O)C3CC=CCC3C2=O)no1 (stereo not shown) | -1.11% |
| O=C(Cn1c2ccc(F)cc2c2nc3n(c(=O)c21)CCS3)Nc1ccc(Cl)cc1F | -3.84% |
| NS(=O)(=O)c1ccc(CNC(=O)c2sccc2-c2ccccc2)cc1 | 5.85% |
| O=C(NNC(=O)C1CCC1)c1ccc(Cl)cc1 | 2.55% |
| CC(C)[C@H](NC(=O)N1CCn2c1nc1ccccc12)C(=O)NC1CCCCC1 | 7.57% |
| Cc1ccc(CNC(=O)C(c2ccccc2)c2ccccc2)cc1 | -18% |
| N#Cc1cccc(CN2CCC(=O)N([C@H](CO)c3ccccc3)CC2)c1 | 4.05% |
| O=C(N/N=C/c1cn(-c2ccccc2)nc1-c1cc2ccccc2o1)c1ccccc1Br | 0.297% |
| Cc1ccc(S(=O)(=O)NCC(=O)OCc2cc(=O)oc3cc(C)ccc23)cc1 | 4.36% |
| Cc1ccc(C(=O)NCCc2ccccc2)cc1S(=O)(=O)N1CCOCC1 | 1.29% |
| Cc1oc2c(C)c3oc(=O)c(CCC(=O)N4CCC(C(=O)NCCC(=O)O)(c5ccccc5)CC4)c(C)c3cc2c1C | 9.7% |
| Cc1ccc(OCC(O)CN2CCN(c3ccccc3)CC2)cc1 (stereo not shown) | -0.16% |

| Compound | hERG current change (%, negative = inhibition) at 1uM |
| --- | --- |
| COc1cccc2cc(-c3nc4ccccc4[nH]3)c(=O)oc12 | 16.1% |
| O=C(c1[nH]ncc1-c1cccc(Br)c1)C1CO1 (stereo not shown) | 13.7% |
| CC1CCCCC1NC(=O)CO/N=C/c1ccc(OC(F)F)cc1 (stereo not shown) | -10.8% |
| O=C(NCc1ccccc1Cl)C1CCCN(S(=O)(=O)c2cnc[nH]2)C1 (stereo not shown) | 14.3% |
| CN(C)S(=O)(=O)c1ccc(NC(=O)CCNC(=O)c2ccc([N+](=O)[O-])cc2)cc1 | 10% |
| COc1ccc(CNC(=O)C2CCN(S(=O)(=O)c3c(C)noc3/C=C/N(C)C)CC2)cc1 | -2.45% |
| Cc1cccc(OCCn2nc(C(=O)O)c3ccccc3c2=O)c1 | -2.97% |
| CN(CC(=O)Nc1ccc(Cl)cc1)C(=O)CNC(=O)c1cccs1 | 11.5% |
| COC(C(=O)NNC(=O)CCc1ccccc1)c1ccccc1 (stereo not shown) | 9.15% |
| CSc1nc2ccccc2c(=O)n1C1CCOC(C)(C)C1 (stereo not shown) | 6.17% |
| Cc1nc2ccc(S(=O)(=O)NCC(=O)N(C)Cc3ccco3)cc2s1 | 2.54% |
| CC(=O)N(c1cccc(C(F)(F)F)c1)c1nc(/C=C/C(=O)O)cs1 | 5.3% |
| COc1ccc(C(=O)NCCc2cccc(Cl)c2)cc1OC1CCN(C(C)=O)CC1 | -6.31% |
| O=C(O)c1ccc2c(c1)C(=O)N(C(Cc1ccccc1)C(=O)O)C2=O (stereo not shown) | 10.1% |
| Cc1ccc([N+](=O)[O-])c2c1C(N1CC(C)OC(C)C1)C(C)(C)O2 (stereo not shown) | 17.1% |
| [NH-]S(=O)(=O)c1ccccc1.[Na+] | 8.56% |
| COc1ccc(OCC(=O)Nc2cccc(OC)c2)cc1 | 19.4% |
| COc1ccc(S(=O)(=O)NCCOc2ccc(Cl)cc2)cc1 | 2.66% |
| Cc1cccc(NC(=O)C2CC(=O)N(c3ccc4c(c3)OCCO4)C2)n1 (stereo not shown) | 16.7% |
| O=C(NCCCN1CCCC1)[C@H](CSCc1ccccc1)N1Cc2ccccc2C1=O | -29.8% |
| O=C(NCc1ccccn1)C(=O)NCC1OCCCN1S(=O)(=O)c1ccc(F)cc1 (stereo not shown) | 13.5% |
| CC(=O)N1C(=O)N(C(C)=O)C2C1N(C)C(=O)N2C(C)=O (stereo not shown) | 12.5% |

| Compound | hERG current change (%, negative = inhibition) at 1uM |
| --- | --- |
| CC(=O)N1CCN(c2nc(-c3ccco3)c3c(c2C#N)CC(C)(C)SC3)CC1 | 7.62% |
| COc1cccc(C(=O)Nc2cccc(NC(C)=O)c2)c1 | 3.08% |
| C=Cc1ccc(Cn2c(=O)n(C)c(=O)c3sccc32)cc1 | 12.4% |
| C=CCn1c(SCc2ccc(C#N)cc2)nnc1-c1ccccc1 | -35.1% |
| COc1cccc(C(=O)Nc2ccc(NC(C)=O)cc2)c1 | 7.57% |
| COc1cc(OC)cc(C(=O)N/N=C(\C)CC(=O)Nc2ccccn2)c1 | 13.6% |
| Cn1cccc1-c1nc2ccc(NC(=O)c3ccccc3)cc2[nH]1 | -12.8% |
| COc1ccc(NC(=O)C(NC(=O)c2ccc(=O)[nH]c2)c2ccccc2)cc1 (stereo not shown) | 13.1% |
| Cc1ccc(/C=C/C(O)=C2/C(=O)N(C)C3(C)CC2c2ccccc2O3)cc1 (stereo not shown) | 10.3% |
| COc1ccccc1NC(=O)C(=O)N/N=C/c1cccs1 | 8.27% |
| COc1ccc(NC(=O)CCC2CCCC2)cc1OC | 5.85% |
| CN(C)/C(=N\S(=O)(=O)c1ccc(F)cc1)c1ccccc1 | 11.8% |
| O=C(NC1C(=O)NNC1c1ccccc1)c1ccccc1 (stereo not shown) | -5.93% |
| COC(=O)C1=C(c2ccc(S(C)(=O)=O)cc2)C[C@@H]2CC[C@H]1N2C(=O)N1CCCCC1 | 9.24% |
| Cn1c(CCN2CCOCC2)nc2cc(NC(=O)c3cccs3)ccc21 | 3.64% |
| COc1ccccc1NC(=O)Cn1c([N+](=O)[O-])cnc1C | 10.2% |
| O=S(=O)(c1ccccc1)N1N=C(c2ccc(O)cc2)CC1c1ccco1 (stereo not shown) | 9.61% |
| COc1ccccc1C1C(C(N)=O)=C(C)Nc2nc(CCCO)nn21 (stereo not shown) | 16.2% |
| Cc1cc(C)c(C(=O)Nn2c(C)nc3ccccc3c2=O)cc1C | 4.51% |
| COCCNC(=O)NC(=O)COC(=O)C12CC3CC(CC(NC(C)=O)(C3)C1)C2 | 12.1% |
| O=C(O)CSCC(=O)Nc1ccccc1 | -1.4% |
| COC(=O)c1cc(OC)c(OC)cc1NC(=S)Nc1cc(Cl)ccc1OC | 9.55% |

| Compound | hERG current change (%, negative = inhibition) at 1uM |
| --- | --- |
| Cc1nnc(NC(=O)C23CC4CC(CC(C4)C2)C3)s1 | 15.3% |
| Cc1cccc(N2CCN(C(=O)c3ccc4c(c3)OCCO4)CC2C)c1 (stereo not shown) | 3.1% |
| COc1ccc(CNc2nc(-c3cccnc3)nn2C(C)=O)cc1 | 11.7% |
| COC(=O)c1cc(=O)n(Cc2ccc3c(c2)OCO3)c(=Nc2ccc(F)c(Cl)c2)s1 | 15.5% |
| O=c1cc2ncc(-n3cc([N+](=O)[O-])cn3)cn2[nH]1 | 11.8% |
| S=C1NC2=C(CCCC2)C2(CCCCC2)N1 | 11.9% |
| O=C(Nc1nnc(-c2ccccc2Cl)s1)C1CCN(S(=O)(=O)c2ccc(Cl)cc2)CC1 | 23.4% |
| C=CCn1c(SCC(=O)Nc2ccc3c(c2)OCO3)nnc1-c1ccccc1 | 2.67% |
| Cc1ccc(S(=O)(=O)Oc2ccccc2/C=C2/SC(=O)NC2=O)cc1 | 15.9% |
| CCOC(=O)c1cnc2[nH]c3ccccc3n2c1=O | 22% |
| Cc1ccc(NS(=O)(=O)c2cc(NC(=O)c3cc(=O)[nH]c(=O)[nH]3)ccc2Cl)c(C)c1 | 13.8% |
| COc1ccc(-c2nn(-c3ccccc3)cc2C2CC(c3cccs3)=NN2C(=O)CCCC(=O)O)cc1 (stereo not shown) | 21.2% |
| Cc1c(NC(=O)OCCSc2nc(N(C)C)nc(N(C)C)n2)sc(=S)n1C | 12.8% |
| CCc1cccc(CC)c1NC(=S)Nc1ccccc1 | 13.8% |
| COc1ccc(/C=C2\CCOC2=O)cc1 | 12.3% |
| CCN(CC)CCCNc1nc(SC)nc2sc3c(c12)CCN(C)C3 | 5.51% |
| O=C1c2ccccc2C(=O)N1CCCc1nc2ccccc2c(=O)n1-c1cccnc1 | -24.3% |
| CC1=NN(c2ccc(C(=O)O)cc2)C(=O)/C1=C\c1ccc(OC(=O)c2cccs2)cc1 | 13.2% |
| NC(=O)CC(NC(=O)Cc1ccc(Br)cc1)c1ccc(NCc2ccccn2)c([N+](=O)[O-])c1 (stereo not shown) | 7.46% |
| O=c1c2ccccc2nc2c3ccccc3c(NCCN3CCOCC3)nn12 | -46% |
| COc1ccccc1C(=O)N1CCC(C(=O)c2ccc(F)cc2)CC1 | 3.81% |
| O=C(Nc1cccc(C(F)(F)F)c1)c1cccnn1 | 3.2% |
